We go through 22 compounds from publication PMC12040169 (PLOS Biology, 2025).

The list shows a part of the results.

This experiment concerns T1, C. trachomatis L2/434/Bu expressing GFP (CTL2-GFP).
T1 construct: L2/434/Bu GFP intracellular growth in HeLa cells
Further details: species or system HeLa; C. trachomatis total inclusion area by high-content imaging, normalised to DMSO. Conditions: total inclusion area; 28.5 h, 10 µM; inhibitor. In outline: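 Host cell viability was gauged from Hoechst-stained nuclei counts, while chlamydial growth was taken from total inclusion area and inclusion number per well. Cells were fixed and imaged by high-content microscopy once bulk GFP and resorufin fluorescence had been measured.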
In the case of `COCCn1cc(C(=O)N2CCCC2c2ccncc2)c2ccccc21` (stereo not shown) [CBK305286], the “% of control remaining” value was 61.2204.
Next, `O=C(c1ccccc1NS(=O)(=O)c1ccc(C(F)(F)F)cc1[N+](=O)[O-])N1CCOCC1` [CBK043353]: 86.0409.
In the case of `O=C(C1CC2C=CC1C21CC1)N1CCC(Oc2ccccc2F)CC1` (stereo not shown) [CBK282179], the “% of control remaining” value amounted to 99.349.
Regarding `CCOC(=O)CCCNC(=O)N1CCN(c2ccccc2)CC1` [CBK155209], the “% of control remaining” value is 105.361.
Next, `O=C(O)/C=C/c1cccc(/C=C/C(=O)O)c1` [CBK261650]: 105.883.
Consider `COc1ccc(CCNC(=O)CCn2cncn2)cc1` [CBK305881], for which the “% of control remaining” value is listed as 86.2233.
Next, `O=C1CC(SCc2nc3ccccc3[nH]2)C(=O)N1c1cccc(Cl)c1` (stereo not shown) [CBK266731]: 118.506.
With `COc1ccc(-c2cc(=O)[nH]c(N3CCN(C)CC3)n2)cc1` [CBK003849], the “% of control remaining” value was found to be 72.0871.
Next, `COc1cc(-c2cncc(Nc3cccc(C(F)(F)F)c3)n2)cc(OC)c1OC` [CBK065213]: 103.196; `CC(=O)NC(CC(=O)N1CCc2sccc2C1C)c1ccc(C)cc1` (stereo not shown) [CBK305378]: 72.2523.
Take `O=[N+]([O-])c1ccc(Oc2ccccc2F)cc1` [CBK002532]: the “% of control remaining” value is on record as 92.7243.
Consider `Cc1ccnc(N2C(=O)c3ccc(C(=O)c4ccc5c(c4)C(=O)N(c4cc(C)ccn4)C5=O)cc3C2=O)c1` [CBK263041], for which the “% of control remaining” value stood at 86.2703.
The figure for `O=S(=O)(Nc1cccc2[nH]ccc12)c1ccc(Br)cc1F` [CBK153547] is 82.7135; for `O=C(N/N=C/c1ccccc1O)c1ccn(Cc2ccc(Cl)cc2)n1` [CBK262770] it is 87.9594.
Next, `O=C(N[C@H]1C2CCCCC2[C@@H]1c1ccccc1)c1cncnc1` (stereo partly shown) [CBK282949]: 96.1677; `Cc1cc(S(=O)(=O)N2CCCC2)ccc1OCC(=O)NCc1ccncc1` [CBK269886]: 110.351.
The figure for `OCCCNCC(O)CN1c2ccccc2Sc2ccccc21` (stereo not shown) [CBK027632G] is 92.044; for `COc1cc(-c2cc(Nc3ccc(N(C)C)cc3)ncn2)cc(OC)c1OC` [CBK090945] it is 13.6846; for `Oc1cccnc1SCc1nc2ccccc2s1` [CBK016367] it is 70.0459.
For `Cc1nccn1CCCn1cncc1-c1ccc2c(c1)CCC(C)N2C` (stereo not shown) [CBK281811], the “% of control remaining” value stood at 106.726.
Next, `Cn1c(CN2CCN(C(=O)Nc3ccccc3)CC2)nc2cc([N+](=O)[O-])ccc21` [CBK268260]: 88.8842; `COc1ccc2[nH]c3c(c2c1)CCOC31CCN(CCC(F)=C(F)F)CC1` [CBK040118]: 70.3211.
